Measurements reported in PMC3750173.

Biological target: T1, IscS (E. coli desulfurase), wild type (E. coli), P0A6B7
T1 chain: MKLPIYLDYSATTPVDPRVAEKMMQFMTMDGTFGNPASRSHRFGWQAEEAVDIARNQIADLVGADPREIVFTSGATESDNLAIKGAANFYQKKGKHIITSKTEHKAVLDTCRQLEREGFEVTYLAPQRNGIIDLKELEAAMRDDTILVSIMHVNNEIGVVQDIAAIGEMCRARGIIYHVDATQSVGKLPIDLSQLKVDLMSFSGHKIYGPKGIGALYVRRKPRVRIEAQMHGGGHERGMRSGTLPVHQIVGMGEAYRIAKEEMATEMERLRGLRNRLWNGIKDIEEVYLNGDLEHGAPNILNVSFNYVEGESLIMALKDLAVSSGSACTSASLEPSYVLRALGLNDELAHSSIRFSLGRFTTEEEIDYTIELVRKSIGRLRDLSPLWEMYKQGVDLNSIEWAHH
Test: SAXS; solutions of 2.5-5.0 mg/ml at 10 °C; IscS alone and holo-Fdx·IscS complex
Conditions: remark: other sources report otherwise

B1: IscS (E. coli desulfurase), wild type, P0A6B7 1-404 (enzyme)
chain: T1 chain
How did the stoichiometry N turn out when B1 was run?
The stoichiometry N was 2.
